In PubChem BioAssay AID1346428 (National Center for Advancing Translational Sciences (NCATS), 2018):
The campaign covered roughly 48,000 compounds. About 1,200 (2.5%) were called active. About 2% were inconclusive and are not listed.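 Rule for the calls: active = activation of at least 60% and not above a set upper limit (about 1 call in 100 departs from these limits); inconclusive = activation of 40% to 60%, or above that upper limit; inactive = activation under 40%.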 The list shows a part of the results.

Target: Probable G-protein coupled receptor 32 (Homo sapiens) (UniProt O75388)
Assay: qHTS for Agonists of Human Resolvin D1 Receptor DRV1; note: 0% is about no effect
Details: CHO-K1 GPR32 beta-arrestin PathHunter luminescence, 90 min; at 76.9 µM; active compounds read high; zero percent set by DMSO-only wells
How it was run: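 PathHunter enzyme-fragment complementation, CHO-K1 GPR32 stable line; 2,500 cells/well, overnight attach; cpd 90 min 37 °C 5% CO2; detection reagent 1 h RT; chemiluminescence. DMSO = EC0.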

UniProt O75388, sequence (O75388 whole entry, looked up): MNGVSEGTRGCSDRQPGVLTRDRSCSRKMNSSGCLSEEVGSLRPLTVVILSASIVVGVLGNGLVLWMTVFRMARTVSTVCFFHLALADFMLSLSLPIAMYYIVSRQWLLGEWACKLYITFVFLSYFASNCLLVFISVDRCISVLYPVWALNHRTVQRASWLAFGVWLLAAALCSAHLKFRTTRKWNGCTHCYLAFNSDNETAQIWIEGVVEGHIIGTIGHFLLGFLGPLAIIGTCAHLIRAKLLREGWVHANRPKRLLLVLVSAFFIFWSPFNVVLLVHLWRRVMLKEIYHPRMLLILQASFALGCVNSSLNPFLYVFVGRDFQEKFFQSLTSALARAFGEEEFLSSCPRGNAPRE

activation, inactive:
COc1cccc(COC(=O)c2nn(-c3ccccc3)nc2N)c1 -4.28%
CCC(CC)C(=O)Nc1cccc(-c2nc3cccnc3s2)c1 -9.07%
CCc1ccc(NC(=O)N2CC=C(c3c[nH]c4ccccc34)CC2)cc1 -6.98%
CCOc1ccc(-c2nc(Cn3c(=O)cc(-c4ccccc4)c4c(C)nn(C)c43)c(C)o2)cc1OC -1.68%
COc1cc(OC)c(NC(=O)C(C)n2c(=O)cc(-c3ccccc3)c3c(C)nn(C)c32)cc1Cl (stereo not drawn) -12.8%
COc1ccccc1CCNC(=O)c1cc2c(=O)n3cccc(C)c3nc2n1C -2.14%
CC(=O)/C=C1\C(=O)N(C)c2ccccc21 -59.6%
CNC(=O)C1CCC(Cn2c(=O)c3sccc3n(Cc3ccccc3)c2=O)CC1 (stereo not drawn) -1.94%
Cc1csc2nc(COC(=O)c3ccccc3NC(=O)c3ccccc3Cl)cc(=O)n12 1.98%
CCOC(=O)c1[nH]c(C)c(CCC(=O)Nc2cc(Cl)ccc2C)c1C -9.71%
COc1ccc(C(=O)NCC(c2cccnc2)N2CCc3ccccc3C2)cc1 (stereo not drawn) -8.14%
CCN(CC)c1ccc(NC(=O)CCS(=O)(=O)c2cccc3nsnc23)c(C)c1 -12.8%
Cc1ccc(CNC(=O)C2CCN(c3nn4cc(-c5ccc(F)cc5)nc4s3)CC2)cc1 -7.73%
Cc1cc(S(=O)(=O)Nc2cc3c(cc2C)n(C)c(=O)c(=O)n3C)ccc1F -7.82%
CCSC1=NC2(CCN(C(=O)NC3CCCCC3)CC2)N=C1c1ccc(C)cc1 2.81%
CCOc1ccccc1NC(=O)c1c(NC(=O)C(C)Oc2cccc(Cl)c2)sc2c1CCCCC2 (stereo not drawn) 8.05%
Cc1cc(C)c2c(n1)nn1c(C)c(CCC(=O)Nc3ccc(C)c(Cl)c3)c(C)nc21 -12.8%
Cc1cn2c(=O)cc(COC(=O)c3cccc(NC(=O)C(C)Oc4ccccc4)c3)nc2s1 (stereo not drawn) -1.05%
Cc1ccccc1NC(=O)CSc1ncc2c(n1)-c1ccccc1N(C)S2(=O)=O 34.2%
CCc1cc2c(cc3c(=O)n(CC(=O)NCc4cccc(Cl)c4)nc(CC)n32)s1 -7.89%
CCC1=Nc2cc(C(=O)NCCc3ccccc3)ccc2Sc2ccc(Cl)cc21 -3.73%
Cc1cccc(S(=O)(=O)c2cn(Cc3ccccc3)c3cc(N4CCC(C)CC4)c(F)cc3c2=O)c1 -20.9%
CCOc1ccc(CC(=O)Nc2c(C(=O)c3ccc(Cl)cc3)oc3ccccc23)cc1OCC 7.38%
CCn1c(Oc2ccc(F)cc2F)nc2c1c(=O)n(C)c(=O)n2C 11.2%
CC1=C(C(=O)Nc2ccc(Cl)cc2)C(c2cccs2)n2nc(SCc3cccc(Cl)c3)nc2N1 (stereo not drawn) 8.15%
COc1cccc(CNC(=O)C(=O)NCC(c2cccs2)S(=O)(=O)c2cccs2)c1 (stereo not drawn) -13.6%
COc1cccc(OCc2nc3ccccc3n2Cc2ccccc2)c1 -28.4%
COc1ccc(-n2nc3cc(C)c(NC(=O)COc4cccc(C)c4)cc3n2)cc1 28.8%
COc1ccc(Nc2cc(C(=O)NCCCN(C)Cc3ccccc3)c3ccccc3n2)cc1OC -25.1%
COc1cccc(CNC(=O)C2CCC(CNS(=O)(=O)c3cccs3)CC2)c1 (stereo not drawn) 36.6%
O=c1c(S(=O)(=O)c2ccccc2)cn(Cc2ccc(F)cc2)c2cc(N3CCCC3)c(F)cc12 -2.58%
Cc1ccc(OCc2cc(=O)n3c4c(sc3n2)CCCC4)c(C)c1 22.7%
CCCC(=O)N(c1ccc2oc3c(c2c1)CCCC3)S(=O)(=O)c1ccc(CC)cc1 -6.77%
COc1ccc(OC)c(-n2c(=O)[nH]c3cc(C(=O)NCCc4ccc(OC)c(OC)c4)ccc3c2=O)c1 9.94%
COc1cccc(NC(=O)c2sc(-n3nc(C)c(Cc4ccccc4Cl)c3C)nc2C)c1 -7.37%
CC1CCN(S(=O)(=O)c2ccc3c(c2)N(CC(=O)NCc2ccccc2Cl)C(=O)CO3)CC1 -6.34%
Cc1ccccc1NC(=O)c1ccc(NC(=O)N2CCSc3ncccc32)cc1 -0.896%
COc1ccc(NCc2nc3ccccc3n2CCOc2ccccc2C)cc1 -15.5%
Cc1ccc(N(C)C(=O)Cn2nc(Cc3ccncc3)c3ccccc3c2=O)cc1C -18.6%
Cc1ccc(CNS(=O)(=O)c2ccc(F)c(C(=O)Nc3ccc(C)c(F)c3)c2)cc1 7.71%
COCCn1c(C)cc(O)c(C(c2ccccc2)N2CCN(c3ccc(F)cc3)CC2)c1=O (stereo not drawn) -0.271%
O=C(NCCS(=O)(=O)N1CCN(c2ccccc2F)CC1)c1cc(=O)c2ccccc2o1 -12.1%
NCCCCCCCCCCN 2.25%
O=C(Cn1cc(S(=O)(=O)Cc2ccc(F)cc2)c2ccccc21)NCCc1ccccc1 -9.39%
CCc1ccc(-n2nc3cc(C)c(NC(=O)c4cc(Cl)ccc4OC)cc3n2)cc1 -19.9%
Cc1ccc(NC(=O)c2ccc(NC(=O)N3CCSc4ncccc43)cc2)cc1Cl 5.03%
Cc1ccc2c(=O)cc(C(=O)Nc3sc4c(c3C(=O)NCc3ccco3)CCC4)oc2c1C 18.5%
COc1ccc(NS(=O)(=O)c2cc3[nH]c(=O)c(=O)[nH]c3cc2C)cc1OC 6.37%
COc1ccc(Nc2cc(C(=O)NCCc3ccccc3)c3ccccc3n2)cc1OC 27.6%
COc1ccc(OCCn2c(C3CC(=O)N(c4ccc(F)cc4)C3)nc3ccccc32)cc1 (stereo not drawn) 30.9%
Cc1ccc(NC(=O)c2c(N3CCCC3=O)c3cc(C)ccc3n2C)c(C)c1 6.53%
CCC(C)NC(=O)Cn1c(=O)n(Cc2ccc(C(=O)NCCCOC)cc2)c(=O)c2ccccc21 (stereo not drawn) -5.1%
COc1ccccc1Nc1cc(C)nc2nc(-c3ccccc3)nn12 -10.6%
